Data published in PubChem BioAssay AID1347165 (National Center for Advancing Translational Sciences (NCATS), 2019).
About 5,700 (2.6%) of roughly 220,000 compounds were called active. Inconclusive results, whose numbers are uncertain, are shown with a selection of clear calls. Calls come from the whole dose curve; as a rule, active = well fitted inhibition curve with a large enough effect; inconclusive = small, poorly fitted or top-dose-only effect; inactive = no such curve, though single readings can be large or run the other way. A potency beside an inconclusive call is a rough fit, not a confirmed value.

What follows are molecules tested against Lysine-specific demethylase 5B (Homo sapiens) (UniProt Q9UGL1) (assay: Primary screen for KDM5B Histone Demethylases FDH-coupled qHTS). Details: FDH-coupled NADH fluorescence (FDH is formaldehyde dehydrogenase); series mostly up to 57.7 µM.
Sequence of UniProt Q9UGL1 (Q9UGL1 whole entry, looked up): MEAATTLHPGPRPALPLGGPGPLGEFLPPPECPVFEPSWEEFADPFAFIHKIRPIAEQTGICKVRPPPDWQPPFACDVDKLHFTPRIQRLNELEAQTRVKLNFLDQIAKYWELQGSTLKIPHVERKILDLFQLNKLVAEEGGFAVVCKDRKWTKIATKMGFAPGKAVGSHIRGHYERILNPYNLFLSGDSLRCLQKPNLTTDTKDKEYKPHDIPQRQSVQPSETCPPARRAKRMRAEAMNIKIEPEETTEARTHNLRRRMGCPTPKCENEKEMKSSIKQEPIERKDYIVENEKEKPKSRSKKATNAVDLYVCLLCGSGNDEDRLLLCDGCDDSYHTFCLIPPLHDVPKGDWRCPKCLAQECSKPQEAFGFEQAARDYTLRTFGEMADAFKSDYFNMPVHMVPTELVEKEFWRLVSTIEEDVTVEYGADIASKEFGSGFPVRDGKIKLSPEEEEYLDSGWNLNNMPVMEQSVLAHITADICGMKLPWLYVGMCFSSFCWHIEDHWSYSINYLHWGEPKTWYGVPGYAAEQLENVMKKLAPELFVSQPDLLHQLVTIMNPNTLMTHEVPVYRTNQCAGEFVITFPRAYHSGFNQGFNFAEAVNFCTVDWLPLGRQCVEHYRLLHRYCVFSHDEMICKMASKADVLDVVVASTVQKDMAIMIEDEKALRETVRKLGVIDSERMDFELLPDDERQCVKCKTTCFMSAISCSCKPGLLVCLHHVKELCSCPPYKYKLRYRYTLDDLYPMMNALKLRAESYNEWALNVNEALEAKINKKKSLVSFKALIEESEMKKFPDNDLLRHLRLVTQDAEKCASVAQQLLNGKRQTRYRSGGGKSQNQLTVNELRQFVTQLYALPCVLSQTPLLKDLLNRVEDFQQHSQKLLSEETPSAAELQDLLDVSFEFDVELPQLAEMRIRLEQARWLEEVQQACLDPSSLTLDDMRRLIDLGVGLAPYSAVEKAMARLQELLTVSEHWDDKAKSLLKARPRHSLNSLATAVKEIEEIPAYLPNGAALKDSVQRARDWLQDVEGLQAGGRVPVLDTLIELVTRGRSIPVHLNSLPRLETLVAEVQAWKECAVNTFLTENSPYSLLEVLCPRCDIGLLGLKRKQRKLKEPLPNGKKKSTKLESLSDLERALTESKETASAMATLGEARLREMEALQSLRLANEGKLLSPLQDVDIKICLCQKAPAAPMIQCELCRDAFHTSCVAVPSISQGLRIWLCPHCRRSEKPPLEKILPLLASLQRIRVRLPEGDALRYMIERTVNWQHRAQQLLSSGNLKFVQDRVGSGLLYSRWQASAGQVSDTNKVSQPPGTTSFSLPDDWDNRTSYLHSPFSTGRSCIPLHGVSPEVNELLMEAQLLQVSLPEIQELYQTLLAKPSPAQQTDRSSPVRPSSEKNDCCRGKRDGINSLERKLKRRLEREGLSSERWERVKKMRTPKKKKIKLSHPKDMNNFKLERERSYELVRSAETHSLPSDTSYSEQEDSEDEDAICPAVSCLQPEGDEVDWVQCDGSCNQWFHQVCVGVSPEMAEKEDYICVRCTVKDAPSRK
Summary of the method: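 Measured: NADH fluorescence change, 30 min, RT. System: KDM5BΔAP 200 nM final, H3K4me3 peptide, α-KG, Fe(II), ascorbate, NAD⁺ plus FDH, pH 7.5 HEPES. Compounds: titrated, 10 min pre-incubation with enzyme.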
Note: nearly all actives have a fitted effect of over 70% in size.
Potency is the fitted concentration of half-maximal effect; tags give direction and shape of the fitted curve.

Structure (SMILES) | Potency
COc1cc(/C=C(\C#N)C(=O)C(C)(C)C)ccc1OCc1c(F)cccc1Cl | inactive
Cc1ccc(NC(=S)N2CCN(c3nccc(C(F)(F)F)n3)CC2)c(C)c1 | inconclusive: 35.5 µM [inhibitor, partial curve, poor fit]
COc1ccc(/C=C/c2ccc3c(c2)C(=O)N2C[C@@H](NC(=O)CC(C)(C)CC(=O)O)C[C@H]2C(=O)N3)cc1 | active: 22.4 µM
COc1ccc(-c2cc3c(=O)n(CCNC(=O)c4ccc5c(c4)OCO5)ccn3n2)cc1 | active: 6.31 µM
O=C(CCc1nc(-c2ccc(F)cc2)no1)Nc1cccc(S(=O)(=O)NC2=NCCC2)c1 | inactive
Cc1ccccc1CNC(=O)CCc1cn(Cc2ccccc2C)c2ccccc12 | inconclusive: 2.24 µM [inhibitor, partial curve, poor fit]
Cc1nn(S(=O)(=O)c2ccc(F)cc2)c(C)c1S(=O)(=O)N1CCCCC1 | inconclusive: 50.1 µM [inhibitor, single point]
COc1ccc(Nc2cc(C)nc(Nc3ccc(NC(=O)C(C)(C)C)cc3)n2)cc1 | inactive
CC(=O)Nc1ccc(-c2ccc(=O)n3c2[C@@H]2C[C@@H](CN(C(=O)c4ccc(F)cc4)C2)C3)cc1 | inconclusive: 25.1 µM [inhibitor, single point]
Cc1c(C(=O)Nc2cccc(C(F)(F)F)c2)oc2ccc(S(=O)(=O)N3CCC4(CC3)OCCO4)cc12 | inconclusive: 3.55 µM [inhibitor, full curve, poor fit]
COC(=O)C(C)N1C(=O)S/C(=C/c2ccc(OC)cc2)C1=O (stereo not drawn) | inactive
Cc1ccc2c(c1)N(C(=O)CCC(=O)Nc1ccc(F)cc1F)CC(C)O2 (stereo not drawn) | inactive
N#Cc1c(Nc2ccccc2Cl)s[nH]c1=O | inconclusive: 10 µM [inhibitor, partial curve, poor fit]
Cc1oc(-c2cccs2)nc1CC(=O)N1CCC(NC(=O)c2ccccc2)CC1 | inconclusive: 25.1 µM [inhibitor, partial curve, poor fit]
Cn1c(=O)c2cc(C(=O)N3CCN(c4cccc(C(F)(F)F)c4)CC3)sc2c2ccccc21 | inactive
Cc1cc(NS(=O)(=O)c2cc(-c3ccc4nnc(C)n4n3)ccc2C)c(C)cc1Br | inactive
O=C(O)c1ccc(NC(=O)c2cc(-c3ccco3)nc3ccccc23)cc1 | inconclusive: 28.2 µM [inhibitor, single point]
CN1CCCC1COc1ccc2c(n1)CN(Cc1ccc(C(F)(F)F)cc1)C(=O)CO2 (stereo not drawn) | inactive
CCN(CC)C(=O)c1ccc(CNC(=O)N(C)C(C2CC2)C2CC2)cc1 | inconclusive: 22.4 µM [inhibitor, single point]
O=C(Nc1cc(C(F)(F)F)ccc1Cl)c1cc(-c2cccs2)nc2ccccc12 | inconclusive: 31.6 µM [inhibitor, single point]
O=C(NCc1ccnc2[nH]ccc12)c1cccc(Cl)c1 | active: 35.5 µM
O=C1CN(C(=O)COC(=O)COc2ccc(Cl)cc2Br)c2ccccc2N1 | inactive
CC(=O)N1C[C@@H](C(=O)N2CCN(c3ncccn3)CC2)[C@H](c2nc(C)no2)C1 | inconclusive: 14.1 µM [inhibitor, partial curve]

Structure (SMILES) | Potency
Cc1cc(C)c(S(=O)(=O)NCCc2sc(-c3cccnc3)nc2C)c(C)c1 | inconclusive: 28.2 µM [inhibitor, partial curve, poor fit]
COc1ccccc1NC(=O)C1CC2CCC1C2 (stereo not drawn) | inactive
Cc1ccc(CS(=O)(=O)N[C@@H]2CN(c3ncccn3)C[C@H]2CN(C)C)cc1 | inconclusive: 31.6 µM [inhibitor, partial curve, poor fit]
COc1ccc(-c2ocnc2C(=O)Nc2ccc(C(C)C)cc2)cc1OC | inconclusive: 31.6 µM [inhibitor, single point]
Cc1ccc(C(=O)Nc2nc3cc(NS(=O)(=O)Cc4ccccc4)ccc3s2)cc1 | inconclusive: 28.2 µM [inhibitor, single point]
Cc1cc(SCC(=O)N(C)CCC#N)nc2c(C)cccc12 | inactive
O=C(CN1C(=O)COc2ccc(S(=O)(=O)N3CCOCC3)cc21)Nc1ccc(F)c(Cl)c1 | inconclusive: 2.24 µM [inhibitor, full curve, poor fit]
COc1cc(-c2ccnc3nc(C4CC4)nn23)cc(OC)c1OC | active: 17.8 µM
O=C(CCC[C@@H]1[C@H]2CCCN3CCC[C@@H](CN1C(=O)Cc1cccs1)[C@@H]23)N1CCOCC1 | inconclusive: 28.2 µM [inhibitor, partial curve, poor fit]
Cc1nn(Cc2ccccc2)c(C)c1[C@@H]1C=C[C@@H](NS(C)(=O)=O)C1 | inactive
Fc1ccc(OCc2nnc(-c3ccccc3)o2)cc1F | inactive
Cc1c(CN2CCCC(c3ccc(C(=O)O)cc3)C2)cnn1C (stereo not drawn) | inactive
COc1ccc(N2CCCC2)c(NC(=O)c2ccc(Br)o2)c1 | inconclusive: 11.2 µM [inhibitor, partial curve, poor fit]
CCOc1ccc(OCCSc2nc3ccccc3n2CC(O)CO)cc1 (stereo not drawn) | inactive
CN(C)c1cc2c(cc1NC(=O)c1cccs1)n(C)c(=O)c(=O)n2C | inactive
CCN(CC)C(=O)C[C@@H]1c2nc(NC(=O)c3ccc(OC)cc3)sc2C[C@@H]2[C@](C)(CO)[C@H](O)CC[C@]21C | inconclusive: 25.1 µM [inhibitor, partial curve, poor fit]
Cn1cc(CC(=O)N2CCCc3ncc(C(=O)Nc4cccc(F)c4)cc32)c2ccccc21 | active: 31.6 µM
O=c1cc(-c2ccccc2)nc2cc(-c3ccco3)[nH]n12 | inconclusive: 35.5 µM [inhibitor, partial curve, poor fit]
Cc1ccc2c(CSc3nnc(NCC(C)C)s3)cc(=O)oc2c1 | inactive
COc1ccc(Cl)cc1-c1ccc2c(c1)C(=O)N1CCN(C(=O)COc3ccccc3)C[C@@H]1C(=O)N2 | inconclusive: 35.5 µM [inhibitor, partial curve, poor fit]
CCCN1CCN(c2nc3ccccc3nc2NS(=O)(=O)c2cccc(Cl)c2)CC1 | inconclusive: 28.2 µM [inhibitor, partial curve, poor fit]
CCOC(=O)c1cc(-c2ccc(OC)cc2)n(CCC(=O)NCc2ccccc2OC)c1C | inconclusive: 35.5 µM [inhibitor, single point]
Cc1cccc(C2CCCCC2)c1O | inactive

Structure (SMILES) | Potency
O=C(Cn1c(=O)oc2ccccc21)Nc1ccc(-c2nnc3n2CCCCC3)cc1 | inactive
O=C(c1ccc2nccn2c1)N1CCOCC1 | active: 100 µM
Cn1c(CCN2CCOCC2)nc2cc(NC(=O)c3ccccc3Cl)ccc21 | inactive
Cc1c(C(=O)Nc2ccc(F)cc2F)oc2ccc3c(c12)C(=O)CC(C)(C)O3 | inconclusive: 31.6 µM [inhibitor, partial curve, poor fit]
COc1ccc(CCNC(=O)c2cnc3ccc(C)cn3c2=O)cc1OC | inactive
Cc1ccc(-n2nc(C)c([C@@H]3C=C[C@@H](NC(=O)c4cccs4)C3)c2C)cc1Cl | inconclusive: 22.4 µM [inhibitor, partial curve]
COC(=O)C1(C(F)(F)F)N=C(N2CCOCC2)Oc2c1c(C)nn2-c1ccccc1 (stereo not drawn) | inconclusive: 3.16 µM [inhibitor, full curve, poor fit]
COCCCNC(=O)c1cc(-c2ccc(OC)cc2)nc2n[nH]c(-c3ccc(Cl)cc3)c12 | inconclusive: 3.16 µM [inhibitor, full curve, poor fit]
CCC1C(=O)NCCN1Cc1cn(-c2cccc(F)c2)nc1-c1ccc(C)o1 (stereo not drawn) | inconclusive: 15.8 µM [inhibitor, partial curve, poor fit]
CN(C)S(=O)(=O)N(CC(=O)Nc1ccc(Cl)c(Cl)c1)c1ccccc1 | inactive
CCN(Cc1nccn1C)C(=O)c1ccc(N2CCC(COC)C2)nc1 (stereo not drawn) | inconclusive: 25.1 µM [inhibitor, single point]
COc1ccc(C(=O)N[C@@H]2CN(c3ncccn3)C[C@H]2CO)cc1F | inconclusive: 17.8 µM [inhibitor, partial curve, poor fit]
CCCc1noc(-c2nc(-c3ccc(OC)c(OC)c3)no2)n1 | inactive
CC(C)OCCCNc1sc(S(=O)(=O)c2ccccc2)nc1S(=O)(=O)c1ccc(Cl)cc1 | inconclusive: 17.8 µM [inhibitor, single point]
COCCC1(NC(=O)C2CCC2)CCN(CC2CC2)CC1 | inactive
Cc1cc(C)c2cc(C#N)c(N3CCCN(C(=O)c4cnccn4)CC3)nc2c1 | inconclusive: 31.6 µM [inhibitor, single point]
O=C(Nc1ccccc1)c1nc2c(o1)CCN(Cc1ccc(F)c(Cl)c1)CC2 | active: 28.2 µM
O=C(Nc1cccc(C(F)(F)F)c1)N[C@H]1[C@H](O)[C@@H](N2CCN(c3ccccc3)CC2)[C@@H]2OC[C@H]1O2 | inactive
CCOC(=O)c1ccccc1NC(=O)c1cc2c(s1)-c1c(C)cccc1OC2 | inconclusive: 1.58 µM [inhibitor, partial curve, poor fit]
CC(C)CC(NC(=O)NC(C)c1ccccc1)C(=O)O (stereo not drawn) | inactive
O=C(NCCc1cccs1)c1ccc(Cn2c(SCc3ccccc3)nc3cccnc32)cc1 | inconclusive: 31.6 µM [inhibitor, partial curve, poor fit]
CC(=O)Nc1ccc(S(=O)(=O)N[C@H]2CO[C@H]3[C@@H]2OC[C@@H]3Nc2nccc(-c3cccc(F)c3)n2)cc1 | inconclusive: 28.2 µM [inhibitor, partial curve, poor fit]
